PubChem BioAssay AID1347120 (National Center for Advancing Translational Sciences (NCATS), 2019)
Hit rate of the full screen: of about 390,000 compounds, about 930 (0.24%) were called active. Inconclusive means that the source gave no clear call. Such entries were picked first, then a sample of the others. Calls come from the whole dose curve; as a rule, active = well fitted activation curve with a large enough effect; inconclusive = small, poorly fitted or top-dose-only effect; inactive = no such curve, though single readings can be large or run the other way. Potencies beside an inconclusive call are fits to weak or partial responses and may not hold up.

Experiment: qHTS for Suppressors of FUS Proteinopathy: Primary screen using FUS-linked yeast assay; note: nearly all actives have a fitted effect of over 55% in size;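 for growth rescue (activation): plate controls were DMSO vehicle for no effect and reference control for full effect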
Conditions: S. cerevisiae FUS-expressing, OD600, 24 h; Potency: growth rescue; growth rescue (activation): at 76.6 µM (top of the series)
Method in brief: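 Read-out: OD at 600 nm after 24hr at 30C, reporting rescue of FUS-induced yeast toxicity. Cells at OD 0.005 in galactose (2%) minimal medium; compounds tested in a dilution series; CP55940 titration from 92uM final as control.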
Potency is the fitted concentration of half-maximal effect; tags give direction and shape of the fitted curve.

SMILES | Potency | growth rescue (activation)
O=C(NC1CCN(C(=S)NCc2ccco2)CC1)C12CC3CC(CC(C3)C1)C2 | inconclusive: 7.94 µM [activator, partial curve] | 
CC(C)n1nnnc1C1(C)CCCCC(=O)N1Cc1cccc(C(F)(F)F)c1 (stereo unspecified) | inactive | 
CC(C)[C@H](N)C(=O)NC[C@H](CC(=O)NC[C@H]1CC[C@H](C(=O)O)CC1)c1ccc(Cl)cc1 | inactive | 
CCCCC1C(C#N)=C(C)NC2=C1C(=O)CC(C)(C)C2 (stereo unspecified) | inactive | 
CCC(Oc1ccccc1C)C(=O)Nc1ccc(S(=O)(=O)Nc2cc(C)on2)cc1 (stereo unspecified) | inconclusive: 28.2 µM [activator, partial curve, poor fit] | 
O=C(O)CSCC(=O)NCc1c(Cl)cccc1Oc1ccccc1 | inactive | 
COc1ccc(/C(O)=C2\C(=O)C(=O)N(Cc3ccco3)C2c2ccc(OC)cc2OC)cc1 (stereo unspecified) |  | inconclusive: 55.5% [activator]
Cc1nc2c(-c3ccc(F)cc3)c(C)nn2c(C)c1CCC(=O)N1CCC(Cc2ccccc2)CC1 | inconclusive: 25.1 µM [activator, partial curve] | 
COc1ccc(OC)c(CNC(=O)C2CCN(S(=O)(=O)c3cn(C)cn3)CC2)c1 | inactive | 
CC1CCCN(Cc2c(O)ccc3c(=O)c(Oc4ccccc4Cl)c(C(F)(F)F)oc23)C1 (stereo unspecified) | inactive | 
Cc1ccc(S(=O)(=O)c2cn(Cc3ccccc3F)c3cc4c(cc3c2=O)OCO4)cc1 | inconclusive: 31.6 µM [activator, single point] | 
COc1ccc(C2=Nc3ccccc3N(C(=O)c3ccc(C(F)(F)F)cc3)C2C(=O)NCc2ccccc2)cc1 (stereo unspecified) | active: 22.4 µM | 
Cc1ccc(Cn2c(C3CCCN3c3nc(-c4ccc(F)cc4)cs3)nc3cc(C(=O)NCCCO)ccc32)cc1 (stereo unspecified) | inconclusive: 50.1 µM [activator, single point] | 
FC(F)(F)c1ccccc1Cc1c(C2CCCCC2)nc2ccc(Br)cn12 | inactive | 
O=C(CN1CCCCCC1)N1c2ccccc2Sc2ccccc21 | inactive | 
CC1=C(C(=O)N(C(C)C)C(C)C)CC(CC(=O)NCc2cccc3ccccc23)C(=O)N1CCC1=CCCCC1 (stereo unspecified) | inconclusive: 22.4 µM [activator, partial curve, poor fit] | 
NS(=O)(=O)c1ccc(NC(=O)c2ccc(OCC3CCCO3)cc2)cc1 (stereo unspecified) | inactive | 
Brc1ccc(N=Nc2ccc3ccccc3n2)cc1 | inactive | 
COc1ccc(C(=O)C=Cc2ccc(OCc3ccccc3)c(OC)c2)cc1OC | inconclusive: 22.4 µM [activator, single point] | 
CCCCCCCNC(=O)C1(CC2CC(c3ccc(Cl)cc3)=NO2)CCN(C(=O)OC(C)(C)C)CC1 (stereo unspecified) | inconclusive: 28.2 µM [activator, single point] | 
O=C(/C=C/c1ccccc1)NC(=S)NNC(=O)c1ccco1 | inconclusive: 31.6 µM [activator, partial curve, poor fit] | 
Cc1ccc(CNC(=O)c2cc3c(=O)n(C)c4ccccc4c3n2C)cc1 | inactive | 
Cc1ccc(CC(=O)NCC2CCCCC2)cc1 | inactive | 

SMILES | Potency | growth rescue (activation)
CCOC(=O)C1CCN(S(=O)(=O)c2cc(-c3onc(C)c3C)ccc2OC)CC1 | inconclusive: 28.2 µM [activator, partial curve, poor fit] | 
O=C1NC(Cc2ccc(O)cc2)c2nc3cc(F)c(F)cc3c(=O)n2-c2cc3ccccc3cc21 (stereo unspecified) | inconclusive: 28.2 µM [activator, single point] | 
CCOC(=O)N1CCN(C(=O)c2ccc3c(=O)n(Cc4ccccc4)c(=S)[nH]c3c2)CC1 | inactive | 
Cc1oc2ccc(OCc3ccc(Cl)cc3)cc2c1C(=O)O | inactive | 
Clc1ccc(-c2cn3cccnc3n2)cc1Cl | inconclusive: 35.5 µM [activator, partial curve, poor fit] | 
CCOc1ccccc1CNC(=O)c1cc2c(=O)n(Cc3ccccc3)ccc2nc1C | inconclusive: 31.6 µM [activator, partial curve, poor fit] | 
COCCNc1nc(Oc2ccccc2)c2sccc2n1 | inactive | 
COc1ccc(Cn2nnnc2C(CC(C)C)N2CCN(c3ccccc3)CC2)cc1 (stereo unspecified) | inconclusive: 2.82 µM [activator, full curve] | 
CC(C)c1ccccc1NC(=O)CC1(CC(=O)O)CCCC1 | inactive | 
O=C1CN(C(=O)c2ccc(Br)o2)C(c2ccc(F)cc2)c2cc(F)ccc2N1 (stereo unspecified) | inconclusive: 35.5 µM [activator, single point] | 
O=C(c1cc(COc2ccc3ncccc3c2)on1)N1CCC(O)CC1 | inactive | 
Cc1ccc(-c2cc(-c3nnc(SCC(=O)Nc4ccccc4-c4ccccc4)n3N)[nH]n2)cc1 | active: 17.8 µM | 
COc1ccc(OC)c(NC(=O)CC2SC(=N)N(c3ccccc3)C2=O)c1 (stereo unspecified) | inconclusive: 11.2 µM [activator, partial curve, poor fit] | 
COc1ccc(S(=O)(=O)CC(=O)c2cc3cc(Br)ccc3oc2=O)cc1 | inconclusive: 7.08 µM [activator, full curve] | 
CCOc1ccc(C(=O)Nc2ccc(N3CCCC3)cc2)cc1 | active: 35.5 µM | 
CCOc1ccc(C(=O)NCCc2csc(-c3ccc(C(F)(F)F)cc3)n2)cc1OCC | inactive | 
CCOc1ccc2nc(N3CCC(C(=O)N4CCN(c5ccccn5)CC4)CC3)sc2c1 | inconclusive: 10 µM [activator, full curve] | 
Cn1cccc1Cc1nnc(SCC(=O)Nc2ccc(F)cc2F)n1-c1ccc(F)cc1 | inactive | 
OC(c1ccc(F)c(F)c1)c1nc(-c2cccs2)cs1 (stereo unspecified) | inactive | 
CC1=C(C(=O)Nc2cccnc2)C(c2cccc(O)c2)n2nc(SCc3ccccc3)nc2N1 (stereo unspecified) | inactive | 
O=CNc1cc(-c2ccsc2)cn2c(-c3ccccc3)cnc12 | inconclusive: 31.6 µM [activator, single point] | 
CS(=O)(=O)c1ccccc1C(=O)N1CCN(S(=O)(=O)c2ccc(C3CCCCC3)cc2)CC1 | inconclusive: 39.8 µM [activator, single point] | 
C[C@@H](NC(=O)c1nc[nH]c1C(=O)N[C@H](C)c1ccccc1)c1ccccc1 | inconclusive: 35.5 µM [activator, single point] | 
